# Results reported in the supplement of paper PMC8728848.
# Some of the results follow.
# B1: CLEC7A (Homo sapiens), Q9BXN2 (protein)
# chain: MEYHPDLENLDEDGYTQLHFDSQSNTRIAVVSEKGSCAASPPWRLIAVILGILCLVILVIAVVLGTMAIWRSNSGSNTLENGYFLSRNKENHSQPTQSSLEDSVTPTKAVKTTGVLSSPCPPNWIIYEKSCYLFSMSLNSWDGSKRQCWQLGSNLLKIDSSNELGFIVKQVSSQPDNSFWIGLSRPQTEVPWLWEDGSTFSSNLFQIRTTATQENPSPNCVWIHVSVIYDQLCSVPSYSICEKKFSM
# Key:
# Assay in all cases: glycan array binding signal (z-score within array); higher = stronger binding
# Conditions in all cases: glycan notation: IUPAC condensed, linker removed
# [1] = molecular target: Neu5Ac(a2-8)Neu5Ac(a2-3)[GalNAc(b1-4)]Gal(b1-4)Glc
# In short: (§1)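 From the Consortium for Functional Glycomics database, 3228 arrays were curated, keeping only those whose protein sequence was available. Binding is given as a within-array Z-score averaged across arrays sharing a protein sequence and across linkers. Negative Z-scores can be read as non-binding.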
# [2] = molecular target: Neu5Ac(a2-8)Neu5Ac(a2-8)Neu5Ac
# In short: as §1
# [3] = molecular target: Neu5Ac(a2-8)Neu5Ac(a2-8)Neu5Ac(a2-3)Gal(b1-4)Glc
# In short: as §1
# [4] = molecular target: Neu5Ac(a2-8)Neu5Ac(a2-8)Neu5Ac(a2-3)[GalNAc(b1-4)]Gal(b1-4)Glc
# In short: as §1
# [5] = molecular target: Neu5Ac(a2-8)Neu5Ac(a2-8)Neu5Ac(a2-8)Neu5Ac(a2-3)[GalNAc(b1-4)]Gal(b1-4)Glc
# In short: as §1
# Neu5Ac(b1-6)GalNAc = molecular target: Neu5Ac(b1-6)GalNAc
# In short: as §1
# [6] = molecular target: Neu5Ac(b2-6)Gal(b1-4)GlcNAc
# In short: as §1
# [7] = molecular target: Neu5Ac9Ac(a2-6)Gal(b1-4)GlcNAc
# In short: as §1
# [8] = molecular target: Neu5Gc(a2-3)Gal(b1-3)GlcNAc
# In short: as §1
# [9] = molecular target: Neu5Gc(a2-3)Gal(b1-3)[Fuc(a1-4)]GlcNAc
# In short: as §1
# Neu5Gc(a2-3)Gal(b1-4)Glc = molecular target: Neu5Gc(a2-3)Gal(b1-4)Glc
# In short: as §1
# [10] = molecular target: Neu5Gc(a2-3)Gal(b1-4)GlcNAc
# In short: as §1
# [11] = molecular target: Neu5Gc(a2-3)Gal(b1-4)[Fuc(a1-3)]GlcNAc
# In short: as §1
# [12] = molecular target: Neu5Gc(a2-6)Gal(b1-4)GlcNAc
# In short: as §1
# Neu5Gc(a2-6)GalNAc = molecular target: Neu5Gc(a2-6)GalNAc
# In short: as §1
binder,measurement,setting,value
B1,glycan array binding signal (z-score),[1],-0.536
same,glycan array binding signal (z-score),[2],4.19
same,glycan array binding signal (z-score),[3],1.53
same,glycan array binding signal (z-score),[4],0.344
same,glycan array binding signal (z-score),[5],0.416
same,glycan array binding signal (z-score),Neu5Ac(b1-6)GalNAc,-0.787
same,glycan array binding signal (z-score),[6],-0.223
same,glycan array binding signal (z-score),[7],-0.055
same,glycan array binding signal (z-score),[8],0.646
same,glycan array binding signal (z-score),[9],-0.912
same,glycan array binding signal (z-score),Neu5Gc(a2-3)Gal(b1-4)Glc,-0.16
same,glycan array binding signal (z-score),[10],-0.68
same,glycan array binding signal (z-score),[11],0.771
same,glycan array binding signal (z-score),[12],-0.292
same,glycan array binding signal (z-score),Neu5Gc(a2-6)GalNAc,-0.113
